# Assay results from the RNAGym collection of RNA variant scans (doi:10.7554/elife.90254).
# The source gives no read counts; variants with many changes may rest on few reads.
# B1: OR4K15 (parent)
# chain: GUUAACGGUCAUAGGCCAUGGAAACUAGGAGCACCAUUUCGCUGCCAGUGAAGAAAUGAACAAAGAAAAUCUGGGCCAGGCAGGCAUCAAAAGAAAUAGUCUUGCGCUCAACCAGAAAGUCUGUAAUCAUUUUAAGGGUA
# Variants of: B1
# Assay: self-cleavage, relative activity (ratio to wild type); higher = more cleavage; in vitro, sequencing; the parent is a self-cleaving ribozyme
row,Variant,self-cleavage
1,U87A A92U U120C U133C,1.17
2,U87C U103A A117G A135U,0.81
3,A91G A110G A114G,0.02
4,A126G A129G A135U,1.22
5,A92G U122C A126U,1.15
6,A114C A116G A118G,0
7,A92G A117G U120C G136A,0.11
8,U87C U122G A134G,2.87
9,A110G U127C A134G,0.07
10,A91G U103G U122A,0.02
11,A96G U100C G137A,1.48
12,A94G C105A U122A,0.01
13,A92G C105U A117G,0.22
14,A98U A114G U127C,0.09
15,A94G A96G A114U A116G A117G U131C,0
16,A110C C112A A140G,0
17,U103G G106A A111G U130C,0.01
18,A90G A91G A94G A118G A125G,0.05
19,A94C A110G A116U,0.02
20,A98G U103C U132C,0.17
21,A118G A126G U131C,0.26
22,A111G A117G A126G,0
23,A114G A117G U132C,0.14
24,A116G U122C U131A,0.3

row,Variant,self-cleavage
1,A89G U103C A126G,0.53
2,U102C U130A A140G,1.94
3,A92G A98G U103A,0.05
4,U100G U108C A134G,0.01
5,A117G A118G U130C U131C,0.43
6,A95G U120C G137A,0.94
7,U103C G123U A140G,1.79
8,C109U U131C U133A,0.47
9,U108C U122C U127C,0
10,A92G G106A U139A,0
11,A92G U108A A116C,0.01
12,A95G A110U A129G,1.55
13,A116G A117G U130C,0.63
14,A96G U100C A118G,1.75
15,A96G U103C A126G,0.58
16,A96G G104A U120A,0.06
17,U102C A116C U120C G137A,1.58
18,A92G U102C A110G,0.27
19,U100C U102C A117G,2.14
20,U87C C88U A117G,2.76
21,U97C U100G U124C,1.16
22,G106U U108C A134G,0
23,U87C U108C U122C,0.02
24,A98G A118G U131A,0.03

row,Variant,self-cleavage
1,A125G A134G A135G,0.56
2,A94G A96G U132C,0.75
3,A110G A116G A125U,0.13
4,A90G U124C A125G,1.24
5,U100C C109U A118G A126G,0.34
6,U122C A135U G138A,0.68
7,A89G A95G A134U,1.11
8,U87C A94G A110G A116G U124C,0.06
9,A90G A91G U108A,0.03
10,A90G A116G U122C,0.11
11,A89U A98G U103G A134G,0
12,A94G U122G A140G,2.94
13,U87C G115A U132C,0.04
14,A94G U103C A135G,0.43
15,A92G A94U U100C,2.16
16,A110G A111G U130G,0.01
17,A94U U127C U133C,0.53
18,A98G C107U A135G G137A,0
19,A110G A116G A135G,0.09
20,U100A C113U A135G,0
21,A90G A116G U130C,0.08
22,A95U A111G A117G A118G,0.02
23,A96U U122C A125C A129G,1.24
24,U87C U100C A116G,0.51

row,Variant,self-cleavage
1,A91G C101U U131C,0.12
2,U102A C113U U120C A125G U127A U131C,0
3,A96G U130C A135G,0.69
4,A111G A114U A117G,0.02
5,A96G U100C U102C,2.47
6,A126G U130C U132C,0.79
7,A94C U108A A126G,0
8,A94G U108C A111U,0.01
9,U87C G106A U122A G138U,0
10,A110U A116G U127C,0.02
11,U87A A90G U103C A140G,1.18
12,A98G A129U A135G,0.26
13,A90G A96G U132G U133C,1.56
14,A90G A98G A118G,0.05
15,U87G C105U U122C G123A,0.01
16,U122C U127C U131A,0.82
17,A92G A125G U133C,0.3
18,A95U A96G C107U U127C,0
19,A94U A118C A140G,0.58
20,A91G A94U A111G,0.04
21,A94G U124C A126G,0.6
22,U87C A96U G138U,1.61
23,U100C A111U A117G C128U,0.13
24,A94U A111U A126G,0.04

row,Variant,self-cleavage
1,A118U U122A U127C,0.57
2,A89G A96G U133C,1.86
3,A96U U102A A116G,0.25
4,G99A U122C A129G,0.14
5,U130C U131C G136A,2.13
6,A95G U103C U132C,0.86
7,A89U A114G U132C,0.23
8,U102C C121A U132C,2.47
9,A90G A118G A135G,0.41
10,U87C A126U A140G,0.82
11,A111U A125G A140G,0.01
12,A94G A125G U130G,0.46
13,A94G U103C A116U,0.09
14,U102A U131C A140U,0.65
15,A90G U100C U102A,1.96
16,A114U U120C U139G,0.05
17,A91G A96G A98G U124A U131C,0.25
18,U87C A92U U102G,0.12
19,U87C A126U A134U,0.42
20,A91G A96G U130C,1.03
21,A92G U100C A111G A114G,0.02
22,U87G U108C U127C U130C,0
23,U102C U133G A140G,2.65
24,A92G A94G G137U,1.6

row,Variant,self-cleavage
1,A95G A111U C113A,0.01
2,A95G U102C U132A,2.92
3,A91G U100A U132C,0.51
4,A91G A114C U132C,0.02
5,A90G U100C A118G,0.63
6,A91U A118G U127A,1.26
7,U103C A111U U120A,0.08
8,C105A A134G G136A,0.02
9,G99A A116U A118G U122A,0
10,A95G U102C A125G,0.51
11,A116G U122A U130G,0.53
12,A96G U108C A129G,0
13,A111G A125C U130C G138A,0.01
14,A110G A114G A140U,0.05
15,A98G A117G A140G,0.19
16,U108C A114U A118G,0.03
17,A95G A110G A116G,0.07
18,U103A U130C G136C,0.15
19,A91U U108A A117G A134U,0
20,A95G C113G A118U,0
21,A92G U103C C109U,0.09
22,U87C U108C A126G,0.01
23,A94G U100C U102A,1.82
24,A96G U120A U132C,2.03

row,Variant,self-cleavage
1,A98G A118G U139C,0.28
2,U97A A110G A116G A126G,0
3,U100C A110G A111U U120A U131C U132C,0
4,U87C U100C U103A G137U,1.6
5,A96G C113G U131C,0.01
6,C105G C107U A116G,0.01
7,A89G U97C U132A A134G,0.85
8,A111G U130C A135G,0
9,A118G U120A U122C U131C A140G,0.76
10,A94G A114G A117G U131C,0.15
11,U87A A92U A116G U132C,1.28
12,U102A A116G U130C U132C,0.02
13,C88U U100C U102A,1.92
14,U87C U102C U132C,1.37
15,U100C A114C U120C U130C,0.02
16,A89G A95G U132C,1.04
17,U97A C105U A118U U122C,0.04
18,U102C A114U U124C,0.02
19,A94G U100C A140U,1.75
20,A114G A117G U127C,0.09
21,U103C U122C U127C,0.21
22,A110G G123A U131C,0.09
23,A94G U103C U120A U127C,0.15
